# Some of the results follow. Repeats are few or missing, and single values can be far off.
# Tested on: A101D
# Assay: cell count relative to DMSO control; melanoma cells; higher = more viable cells
# Conditions: library dose: low library concentration; 72 h
# 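Also: cell number obtained by counting DAPI-stained nuclei in high-throughput microscope images with image analysis software, screen run in 1,536-well plates.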
row,SMILES,cell count
1,"Nc1ncn([C@H]2C[C@H](O)[C@@H](CO)O2)c(=O)n1 [decitabine] + C[As](C)SC[C@H](NC(=O)CC[C@H](N)C(=O)O)C(=O)NCC(=O)O [Darinaparsin] (first compound 0.1 µM, partner dose 0.4 µM)",106%
2,"Cn1sc(=O)n(Cc2ccccc2)c1=O + N.N.[Cl][Pt][Cl] [cisplatin] (first compound 0.4 µM, partner dose 1.6 µM)",86.4%
3,"Cn1cnc2c(F)c(Nc3ccc(Br)cc3Cl)c(C(=O)NOCCO)cc21 [selumetinib] + C[C@]12O[C@H](C[C@]1(O)CO)n1c3ccccc3c3c4c(c5c6ccccc6n2c5c31)CNC4=O [Lestaurtinib] (first compound 0.015 µM, partner dose 0.004 µM)",76.8%
4,"O=C(Nc1cc(C(F)(F)F)cc(C(F)(F)F)c1)c1cc(Cl)ccc1O + C[C@]12O[C@H](C[C@]1(O)CO)n1c3ccccc3c3c4c(c5c6ccccc6n2c5c31)CNC4=O [Lestaurtinib] (first compound 0.016 µM, partner dose 0.004 µM)",95%
5,"O=C(O)[C@@H]1[O][Sb](=[O])([O][Sb]2(=[O])[O][C@H]([C@H](O)CO)[C@H](O)[C@H](C(=O)O)[O]2)[O][C@H]([C@H](O)CO)[C@@H]1O (stereo partly specified) [stibogluconate] + C[As](C)SC[C@H](NC(=O)CC[C@H](N)C(=O)O)C(=O)NCC(=O)O [Darinaparsin] (first compound 2 µM, partner dose 0.4 µM)",108%
6,"Cc1cc(Nc2cc(N3CCN(C)CC3)nc(/C=C/c3ccccc3)n2)n[nH]1 + N.N.[Cl][Pt][Cl] [cisplatin] (first compound 0.04 µM, partner dose 1.6 µM)",105%
7,"CN(c1ncccc1CNc1nc(Nc2ccc3c(c2)CC(=O)N3)ncc1C(F)(F)F)S(C)(=O)=O + C[As](C)SC[C@H](NC(=O)CC[C@H](N)C(=O)O)C(=O)NCC(=O)O [Darinaparsin] (first compound 0.08 µM, partner dose 0.4 µM)",110%
8,"C[C@@H](N)c1ccc(C(=O)Nc2ccnc3[nH]ccc23)cc1 + N.N.[Cl][Pt][Cl] [cisplatin] (first compound 0.4 µM, partner dose 1.6 µM)",92.2%
9,"OCc1c[nH]c2ccccc12 [Indole-3-carbinol] + C[As](C)SC[C@H](NC(=O)CC[C@H](N)C(=O)O)C(=O)NCC(=O)O [Darinaparsin] (first compound 0.8 µM, partner dose 0.4 µM)",88.6%
10,"C[C@@H](N)c1ccc(C(=O)Nc2ccnc3[nH]ccc23)cc1 + Cn1cc(C2=C(c3cn(C4CCN(Cc5ccccn5)CC4)c4ccccc34)C(=O)NC2=O)c2ccccc21 [Enzastaurin] (first compound 0.4 µM, partner dose 0.8 µM)",87.2%
11,"O=C(Nc1cc(C(F)(F)F)cc(C(F)(F)F)c1)c1cc(Cl)ccc1O + C[As](C)SC[C@H](NC(=O)CC[C@H](N)C(=O)O)C(=O)NCC(=O)O [Darinaparsin] (first compound 0.016 µM, partner dose 0.4 µM)",102%
12,"COc1cc([C@@H]2c3cc4c(cc3[C@@H](O[C@@H]3O[C@@H]5CO[C@@H](C)O[C@H]5[C@H](O)[C@H]3O)[C@H]3COC(=O)[C@H]23)OCO4)cc(OC)c1O [etoposide] + C[As](C)SC[C@H](NC(=O)CC[C@H](N)C(=O)O)C(=O)NCC(=O)O [Darinaparsin] (first compound 0.02 µM, partner dose 0.4 µM)",113%
13,"Cc1cn(-c2cc(NC(=O)c3ccc(C)c(Nc4nccc(-c5cccnc5)n4)c3)cc(C(F)(F)F)c2)cn1 [nilotinib] + C[C@]12O[C@H](C[C@]1(O)CO)n1c3ccccc3c3c4c(c5c6ccccc6n2c5c31)CNC4=O [Lestaurtinib] (first compound 0.2 µM, partner dose 0.004 µM)",95.6%
14,"Cn1cnc2c(F)c(Nc3ccc(Br)cc3Cl)c(C(=O)NOCCO)cc21 [selumetinib] + N.N.[Cl][Pt][Cl] [cisplatin] (first compound 0.015 µM, partner dose 1.6 µM)",108%
15,"Cc1ccc(Nc2nccc(N(C)c3ccc4c(C)n(C)nc4c3)n2)cc1S(N)(=O)=O [Pazopanib] + Cn1cc(C2=C(c3cn(C4CCN(Cc5ccccn5)CC4)c4ccccc34)C(=O)NC2=O)c2ccccc21 [Enzastaurin] (first compound 0.4 µM, partner dose 0.8 µM)",87.7%

# Tested on: A2058
# Assay: as above
# Conditions: library dose: low library concentration; 72 h
row,SMILES,cell count
1,"CCCCCCCCCCCCCCCCCCOP(=O)([O-])OC1CC[N+](C)(C)CC1 [Perifosine] + N.N.[Cl][Pt][Cl] [cisplatin] (first compound 0.4 µM, partner dose 1.6 µM)",85.8%
2,"Cc1ccc(Nc2nccc(N(C)c3ccc4c(C)n(C)nc4c3)n2)cc1S(N)(=O)=O [Pazopanib] + N.N.[Cl][Pt][Cl] [cisplatin] (first compound 0.4 µM, partner dose 1.6 µM)",94.4%
3,"O=c1[nH]nc(Sc2ncc([N+](=O)[O-])s2)n1-c1ccc2c(c1)OCCO2 + N.N.[Cl][Pt][Cl] [cisplatin] (first compound 0.2 µM, partner dose 1.6 µM)",103%
4,"C[C@]1(O)C[C@@H](c2nc(-c3ccc4ccc(-c5ccccc5)nc4c3)c3c(N)nccn32)C1 + C[As](C)SC[C@H](NC(=O)CC[C@H](N)C(=O)O)C(=O)NCC(=O)O [Darinaparsin] (first compound 0.4 µM, partner dose 0.4 µM)",99.4%
5,"Cn1sc(=O)n(Cc2ccccc2)c1=O + C[As](C)SC[C@H](NC(=O)CC[C@H](N)C(=O)O)C(=O)NCC(=O)O [Darinaparsin] (first compound 0.4 µM, partner dose 0.4 µM)",112%
6,"N#CC[C@H](C1CCCC1)n1cc(-c2ncnc3[nH]ccc23)cn1 [ruxolitinib] + C[As](C)SC[C@H](NC(=O)CC[C@H](N)C(=O)O)C(=O)NCC(=O)O [Darinaparsin] (first compound 1 µM, partner dose 0.4 µM)",93.5%
7,"O=c1[nH]nc(Sc2ncc([N+](=O)[O-])s2)n1-c1ccc2c(c1)OCCO2 + Cn1cc(C2=C(c3cn(C4CCN(Cc5ccccn5)CC4)c4ccccc34)C(=O)NC2=O)c2ccccc21 [Enzastaurin] (first compound 0.2 µM, partner dose 0.8 µM)",104%
8,"CCCCCCCCc1ccc(CCC(N)(CO)CO)cc1 [fingolimod] + N.N.[Cl][Pt][Cl] [cisplatin] (first compound 2 µM, partner dose 1.6 µM)",74%
9,"CNC(=O)c1cc(Oc2ccc(NC(=O)Nc3ccc(Cl)c(C(F)(F)F)c3)cc2)ccn1 [sorafenib] + C[As](C)SC[C@H](NC(=O)CC[C@H](N)C(=O)O)C(=O)NCC(=O)O [Darinaparsin] (first compound 0.4 µM, partner dose 0.4 µM)",87.3%
10,"O=C(Nc1cc(C(F)(F)F)cc(C(F)(F)F)c1)c1cc(Cl)ccc1O + Cn1cc(C2=C(c3cn(C4CCN(Cc5ccccn5)CC4)c4ccccc34)C(=O)NC2=O)c2ccccc21 [Enzastaurin] (first compound 0.016 µM, partner dose 0.8 µM)",114%
11,"CC1(C)CCC(c2ccc(Cl)cc2)=C(CN2CCN(c3ccc(C(=O)NS(=O)(=O)c4ccc(N[C@H](CCN5CCOCC5)CSc5ccccc5)c(S(=O)(=O)C(F)(F)F)c4)cc3)CC2)C1 + C[As](C)SC[C@H](NC(=O)CC[C@H](N)C(=O)O)C(=O)NCC(=O)O [Darinaparsin] (first compound 0.4 µM, partner dose 0.4 µM)",94.2%
12,"CCN(CC)CCNC(=O)c1c(C)[nH]c(/C=C2\C(=O)Nc3ccc(F)cc32)c1C [sunitinib] + C[As](C)SC[C@H](NC(=O)CC[C@H](N)C(=O)O)C(=O)NCC(=O)O [Darinaparsin] (first compound 0.4 µM, partner dose 0.4 µM)",120%
13,"Cc1ccc(Nc2nccc(N(C)c3ccc4c(C)n(C)nc4c3)n2)cc1S(N)(=O)=O [Pazopanib] + C[C@]12O[C@H](C[C@]1(O)CO)n1c3ccccc3c3c4c(c5c6ccccc6n2c5c31)CNC4=O [Lestaurtinib] (first compound 0.4 µM, partner dose 0.004 µM)",82.5%
14,"CC[C@]1(O)C[C@H]2CN(CCc3c([nH]c4ccccc34)[C@@](C(=O)OC)(c3cc4c(cc3OC)N(C=O)[C@H]3[C@@](O)(C(=O)OC)[C@H](OC(C)=O)[C@]5(CC)C=CCN6CC[C@]43[C@@H]65)C2)C1 [vincristine] + C[C@]12O[C@H](C[C@]1(O)CO)n1c3ccccc3c3c4c(c5c6ccccc6n2c5c31)CNC4=O [Lestaurtinib] (first compound 0.0001 µM, partner dose 0.004 µM)",36.5%
15,"CC(=O)c1c(C)c2cnc(Nc3ccc(N4CCNCC4)cn3)nc2n(C2CCCC2)c1=O [palbociclib] + C[As](C)SC[C@H](NC(=O)CC[C@H](N)C(=O)O)C(=O)NCC(=O)O [Darinaparsin] (first compound 0.04 µM, partner dose 0.4 µM)",104%
16,"CC[C@]1(O)C[C@H]2CN(CCc3c([nH]c4ccccc34)[C@@](C(=O)OC)(c3cc4c(cc3OC)N(C=O)[C@H]3[C@@](O)(C(=O)OC)[C@H](OC(C)=O)[C@]5(CC)C=CCN6CC[C@]43[C@@H]65)C2)C1 [vincristine] + Cn1cc(C2=C(c3cn(C4CCN(Cc5ccccn5)CC4)c4ccccc34)C(=O)NC2=O)c2ccccc21 [Enzastaurin] (first compound 0.0001 µM, partner dose 0.8 µM)",87.1%
